# Experimental data published in paper PMC4336329 (PLoS ONE, 2015).
# About 2,200 (0.71%) of roughly 310,000 compounds showed an effect of 50% or more. Effects have a minus sign here. The list shows a part of the results.
# Molecular target: human ether-à-go-go-related gene (hERG) potassium channel (human, UniProt Q12809)
# Test: primary screen, population patch clamp on CHO cells stably expressing hERG
# Chain of human ether-à-go-go-related gene (hERG) potassium channel (Q12809 whole entry, looked up): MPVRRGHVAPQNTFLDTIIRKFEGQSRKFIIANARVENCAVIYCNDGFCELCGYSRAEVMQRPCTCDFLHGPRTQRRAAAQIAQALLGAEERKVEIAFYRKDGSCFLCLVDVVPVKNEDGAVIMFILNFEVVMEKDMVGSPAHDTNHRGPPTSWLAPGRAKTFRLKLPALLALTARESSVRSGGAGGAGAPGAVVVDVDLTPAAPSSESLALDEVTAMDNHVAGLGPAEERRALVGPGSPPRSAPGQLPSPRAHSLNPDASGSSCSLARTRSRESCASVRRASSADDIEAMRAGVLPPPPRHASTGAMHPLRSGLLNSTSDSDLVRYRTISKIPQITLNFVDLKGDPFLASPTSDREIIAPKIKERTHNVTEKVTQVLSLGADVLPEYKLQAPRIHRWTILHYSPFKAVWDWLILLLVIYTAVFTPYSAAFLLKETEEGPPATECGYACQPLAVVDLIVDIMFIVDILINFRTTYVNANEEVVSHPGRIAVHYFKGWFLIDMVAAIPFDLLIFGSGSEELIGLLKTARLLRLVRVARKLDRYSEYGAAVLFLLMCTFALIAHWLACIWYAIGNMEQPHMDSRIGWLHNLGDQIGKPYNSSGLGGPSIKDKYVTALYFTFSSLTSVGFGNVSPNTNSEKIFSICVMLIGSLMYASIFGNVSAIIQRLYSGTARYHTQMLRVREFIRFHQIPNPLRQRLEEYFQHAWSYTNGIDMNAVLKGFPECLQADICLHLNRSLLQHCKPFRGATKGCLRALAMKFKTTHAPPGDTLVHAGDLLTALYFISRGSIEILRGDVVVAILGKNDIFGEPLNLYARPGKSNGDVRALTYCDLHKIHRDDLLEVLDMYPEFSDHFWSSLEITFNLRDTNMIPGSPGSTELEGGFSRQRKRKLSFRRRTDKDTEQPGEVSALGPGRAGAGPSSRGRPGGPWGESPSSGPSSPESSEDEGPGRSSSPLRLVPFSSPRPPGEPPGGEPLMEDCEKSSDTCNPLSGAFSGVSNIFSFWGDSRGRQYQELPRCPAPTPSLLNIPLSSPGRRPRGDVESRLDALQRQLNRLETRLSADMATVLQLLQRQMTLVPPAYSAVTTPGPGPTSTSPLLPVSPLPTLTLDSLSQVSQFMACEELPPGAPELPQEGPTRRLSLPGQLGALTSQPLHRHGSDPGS
row,SMILES,"hERG current change (%, negative = inhibition) at 1uM"
1,Cn1c(=O)c2c(nc(CN3CCC(C(N)=O)CC3)n2Cc2c(Cl)cccc2Cl)n(C)c1=O,-1.28%
2,Cl.O=C(NCCN1CCCCC1)c1c(O)c2ccccc2[nH]c1=O,2.99%
3,CC(C)C(c1nnnn1CCc1ccccc1)N1CCOCC1 (stereo not shown),5.85%
4,Cc1ccc(C)c(NC(=O)CSc2nnc(CCCCCNC(=O)OC(C)(C)C)o2)c1,-14.6%
5,CC(=O)Nc1ccc(NC(=O)CC2CCCC2)cc1,13.6%
6,COc1ccc(Cl)cc1NC(=O)NCCN1CCNC1=O,5.75%
7,O=C(NCCn1cc(SCc2ccccc2)c2ccccc21)c1ccccc1F,16%
8,COc1ccc(S(=O)(=O)Cc2ccc(C(=O)NCc3cccs3)o2)cc1,-6.95%
9,CC(=O)Nc1ccc(NC(=O)CSc2nc3ccccc3nc2N2CCC(C)CC2)cc1,10.9%
10,CC(C)(C)c1ccc(OCCC(=O)OCC(=O)N2c3ccccc3NC(=O)C2(C)C)cc1,6.31%
11,CC(C)(C)OC(=O)NCCc1nnc(SCC(=O)Nc2ccc(Br)cc2)o1,4.83%
12,CCOC(=O)c1ccc(-n2c(CN3CCN(CCO)CC3)nc3ccc([N+](=O)[O-])cc3c2=O)cc1,7.31%
13,COc1ccc(CCNS(=O)(=O)c2ccc(Br)cc2)cc1,-1.33%
14,O=C(O)CCCn1cc(NC(=O)c2ccc(F)cc2)cn1,21.8%
15,Cn1cc(C=C2C(=O)NC(=O)NC2=O)c2ccccc21,13.4%
16,COn1c(SCC(=O)N(C)C)nc2ccccc2c1=O,6.45%
17,CCc1nnc(NC(=O)c2ccc(S(=O)(=O)N(CC(C)C)CC(C)C)cc2)o1,4.19%
18,CCOC(=O)N1CCN(C(=O)C(=O)NNC(=O)COc2ccc(Cl)c(C)c2)CC1,6.06%
19,COC(=O)c1cccc(NC(=O)C2COc3ccccc3O2)c1 (stereo not shown),14.8%
20,CCc1c(C(=O)NNC(=S)Nc2ccc(S(=O)(=O)Nc3ncccn3)cc2)csc1C,6.74%
21,CCN(CC(=O)Nc1cccc(OC)c1)C(=O)C1CCN(C(=O)Nc2ccccc2)CC1,17.3%
22,COc1cccc(/C=C/C(=O)OCC(=O)c2ccc3c(c2)NC(=O)CO3)c1,8.26%

row,SMILES,"hERG current change (%, negative = inhibition) at 1uM"
1,CCOP(=O)(OCC)C(NC(=O)Cc1ccccc1)C(Cl)(Cl)Cl (stereo not shown),14.8%
2,O=C(NNc1cccc(Cl)n1)c1cccnc1Cl,14.1%
3,Cc1ccc(OC(C)C(=O)Nc2cc(C)on2)cc1 (stereo not shown),6.11%
4,COc1ccc(OC)c(NC(=O)c2sc3nc(Cc4ccccc4)cc(C(F)(F)F)c3c2N)c1,15%
5,Cc1ccc(N2C(=O)N(CC(=O)Nc3ccc([N+](=O)[O-])cc3)C(=O)C2C)cc1 (stereo not shown),8.15%
6,O=C(CN1CCC(n2nnc3cc(C(F)(F)F)ccc32)CC1)NNC(=O)c1ccco1,-4.93%
7,CCOc1ccc(C(=O)OCC(=O)NCCNC(=O)COC(=O)c2ccc(OCC)cc2)cc1,8.24%
8,Cc1c(Cl)cccc1NC(=S)N(Cc1cccs1)C1CCCC1,11.6%
9,COc1ccc(S(=O)(=O)CCC(=O)Nc2cc(C)ccc2OC)cc1,-2.28%
10,COc1cc(/C=C2/SC(=S)N(c3ccccc3)C2=O)ccc1Oc1nc(N2CCOCC2)nc(N2CCOCC2)n1,4.11%
11,CN=c1scc(C)n1/N=C/c1cc(Br)c(O)c(Br)c1,3.22%
12,CCO[C@H]1OC(C(=O)NC2CC2)=C[C@@H](c2ccc(C(F)(F)F)cc2)[C@@H]1CCCO,-11.9%
13,CCC1C(=O)C(C)(C)C(=O)OC1c1ccc([N+](=O)[O-])cc1 (stereo not shown),9.82%
14,Cc1ccc(Cn2c(CCNc3nc(-c4ccc(Cl)c([N+](=O)[O-])c4)cs3)nc3cc(Cl)c(Cl)cc32)cc1,6.04%
15,CCOC(=O)c1cc(-c2ccccc2)nc2nc(N(CC)CC)sc12,13.4%
16,Cc1ccc(-n2c(=O)[nH]c3c(C(N)=O)nc(C(C)C)nc32)cc1,9.4%
17,COc1cc2c3nnc(-c4ccccc4)c-3cn(Cc3ccc(F)cc3)c2cc1OC,-26%
18,CCCNC(=O)c1ccccc1NC(=O)CN(c1ccccc1)S(=O)(=O)N(C)C,2.44%
19,O=C(COC(=O)c1cc(F)cc(F)c1)Nc1cccnc1Cl,2.62%
20,Cc1ccc(C(=O)Oc2cccc(NC(=O)c3ccccc3)c2)cc1C,19.9%
21,Cc1nnc2sc(SCc3cccc(Cl)c3)nn2c1=O,-4.35%
22,O=C(NCCc1c[nH]c2ccccc12)C1CCC(=O)N(CCc2cccc(F)c2)C1 (stereo not shown),11.4%

row,SMILES,"hERG current change (%, negative = inhibition) at 1uM"
1,C1CNCCN1.C[C@]12CC[C@@H]3c4ccc(OS(=O)(=O)O)cc4CC[C@H]3[C@@H]1CCC2=O,15.7%
2,O=S(=O)(Nc1cccnc1Cl)c1ccc(-c2ccccc2)cc1,14.1%
3,CC(C)Cc1nnc(NC(=O)CCC(=O)NC2CC2)s1,18.9%
4,C=CCN=C(NC#N)SCC(=O)NC(C)(C)C,7.91%
5,Cc1cccnc1NC(=O)c1ccc(NS(=O)(=O)c2ccc3[nH]c(=O)[nH]c3c2)cc1,-3.65%
6,O=C(Nc1cnc2ccccn2c1=O)c1ccc(F)cc1,10.6%
7,O=C(NO)C1CC2C=CC1C2 (stereo not shown),11.2%
8,CCn1cc([N+](=O)[O-])c(C(=O)Nc2ccn(Cc3ccccc3F)n2)n1,13.4%
9,COc1ccc(CC(=O)Nc2nc(-c3cccc([N+](=O)[O-])c3)cs2)cc1,8.71%
10,Cc1ccc(OCC(=O)Nc2cccc(O)c2)cc1C,6.45%
11,COc1ccc(S(=O)(=O)N(C)CC(=O)NC2CC2)cc1OC,15.2%
12,CCN1CCN(C(=O)c2cc3cc(Cl)ccc3[nH]2)CC1,-8.42%
13,CC(=O)Nc1ccc(S(=O)(=O)N2CCN(S(=O)(=O)N3CCCCC3)CC2)cc1,7.5%
14,N#Cc1c2n(c3c(-c4ccccc4)ncnc13)CCC2,9.7%
15,Cc1cccc(N=Cc2c(O)cc(C)oc2=O)c1,4.56%
16,Cc1ccc2c(c1)nnn2C1CCN(S(C)(=O)=O)CC1,-23.1%
17,O=c1[nH]c2c(s1)C(c1cccnc1)C1C3CCC(C3)C1S2 (stereo not shown),3.15%
18,Cc1ccc(C)c(NC(=S)NC2CC3CCCC(C2)N3CC(C)C)c1 (stereo not shown),-1.85%
19,CCCCC(=O)Nc1ccc(C(=O)N2CCN(C)CC2)cc1,10.7%
20,COc1ccc(-c2nnn(CC#N)n2)cc1OC,9.57%
21,O=C(N/N=C/c1c(O)n(Cc2ccco2)c(=O)[nH]c1=O)c1ccccc1O,8.67%
22,O=C(O)CCn1nnc2ccccc21,7.98%

row,SMILES,"hERG current change (%, negative = inhibition) at 1uM"
1,CC(C)(C)c1nnc(NC(=O)Cc2ccc(Br)cc2)s1,12.5%
2,COc1cccc(OCCNC(=O)c2ccccc2Sc2ccccc2C#N)c1,10%
3,Cc1ccc2cc(C3CC(c4cccs4)=NN3S(C)(=O)=O)c(Cl)nc2c1 (stereo not shown),8.28%
4,Cc1ccc(N=C(N(C)C)P(=O)(N(C)C)N(C)C)c(C)c1,7.77%
5,CC(=O)N1CCCN(Cc2cn(-c3cccc(C)c3)nc2-c2cccc(F)c2)CC1,6.18%
6,CC(=O)C[C@H](O)CC(=O)[C@H]1OC(=O)CCCCCCCc2ccccc21,9.33%
7,O=C(CSc1nc(=O)n2ccccc2n1)N1N=C(c2cccs2)CC1c1ccc(F)cc1 (stereo not shown),5.37%
8,CC1CC1C(=O)Nc1nc(-c2ccccn2)cs1 (stereo not shown),10.1%
9,O=C(NCc1ccc(-c2nc3ccccc3s2)cc1)c1ccc(Br)o1,16%
10,CSc1ccccc1NC(=O)c1cnc2n(c1=O)CCS2,11.8%
11,CCOC(=O)c1ccc(Nc2nc(N3CCOCC3)nc(N3CCOCC3)n2)cc1.Cl,26.5%
12,COc1cccc(NC(=O)CCC(=O)N2CC(C)Oc3ccc(C)cc32)c1 (stereo not shown),15.1%
13,COc1ccccc1CNC(=O)CCC(=O)N1CC(C)Sc2ccccc21 (stereo not shown),0.487%
14,O=C(NCc1ccccc1Cl)C(=O)NCC1OCCN1S(=O)(=O)c1cccs1 (stereo not shown),-0.171%
15,O=C(NC(=S)NCc1ccco1)c1cccc(Cl)c1,11.1%
16,O=C(N/N=C/c1ccc(Br)o1)c1ccc2c(c1)OCCO2,9.58%
17,Cc1onc(-c2c(F)cccc2Cl)c1C(=O)N1CCN(S(C)(=O)=O)CC1,-4.91%
18,O=C1C(C2=NC(c3ccccn3)C3C(=O)N(c4ccc(Cl)cc4Cl)C(=O)C23)=C(O)c2ccccc21 (stereo not shown),5.49%
19,C=CCNC(=O)c1oc2ccc(S(=O)(=O)N(CC)CC)cc2c1C,8.48%
20,COc1ccc(S(=O)(=O)NCCc2ccc(F)cc2)cc1,7.42%
21,CCOc1cccc(CN2CCC(Oc3ccc(C(=O)N4CCCC4)cc3)CC2)c1,5.17%
22,Cc1nnsc1C(=O)N/N=C/c1c(F)cccc1Cl,8.96%
